Experiment [1] concerns the target T1, human Claudin18.1 (human, UniProt P56856 1-261).
T1 construct: whole, on cells; also called CLDN18.1; HEK293T-Claudin18.1 (human)
The experiment in a line: FACS on HEK293T-Claudin18.1 (human) cells.

The target in experiment [2] is T2, human Claudin18.2 (human, UniProt P56856-2 1-261).
T2 construct: whole, on cells; also called CLDN18.2; HEK293T-Claudin18.2 (human)
The experiment in a line: cell-based ELISA on HEK293T-Claudin18.2 (human) cells. The method, then: The affinity of the anti-human Claudin18.2 murine monoclonal antibodies was evaluated by cell-based ELISA. The experimental procedures were as follows: The day before the experiment, HEK293T-Claudin18.2 (human) cells were plated in a 96-well plate at 5×10⁴ cells/well. On the day of the experiment, the supernatant was removed, the cells in each well were washed once with 300 μL of PBS, and 100 μL of 4% paraformaldehyde was added to each well for fixation at room temperature for 20 min. Paraformaldehyde was then removed, and the cells in each well were washed twice with 300 μL of PBS. 100 μL of 2% BSA (in PBS) was added to each well, and the mixture was blocked at 37° C. for 2 h. After removing the blocking solution, each antibody subjected to gradient dilution (diluted with 2% BSA (in PBS), starting at […], in a 3-fold gradient, for a total of 11 concentration points) was added to the plate at 100 μL/well, and the mixture was incubated at 37° C. for 2 h. The supernatant was removed, and the cells in each well were washed three times with 300 μL of PBST. […] The reaction was stopped by adding 50 μL of 2 N HCl to each well, and OD_{450 nm} values were read on a microplate reader (manufacturer: MD, model: SpectraMax). […]
The affinity of the anti-human Claudin18.2 humanized monoclonal antibodies was determined by cell-based ELISA. […]
For orientation: In an ELISA, binding on a coated surface is turned into a signal by an enzyme label.

The target of experiment [3] is T2, human Claudin18.2. The experiment in a line: cell-based or functional assay.
Experiment [4] deals with T2, human Claudin18.2. Description: FACS on HEK293T-Claudin18.2 (human) cells. Here is the method: The affinity of the anti-human Claudin18.2 humanized antibodies was detected by flow cytometry. The experimental procedures were as follows: The adherent cultured HEK293T-Claudin18.2 (human), NUGC4-Claudin18.2 (human) and NUGC4 cells were digested, collected by centrifugation, and washed three times with pre-cooled PBS. The cells were resuspended in 1% BSA (in PBS) and added to a 96-well pointed bottom plate at 3×10⁵ cells/well, with a volume of 50 μL per well. Each test antibody was diluted with 1% BSA (in PBS) (starting at 100 μg/mL, diluted in a 3-fold gradient, for 10 concentration points). The test antibody subjected to gradient dilution was added to the cells at 50 μL/well, and the mixture was well mixed and incubated at 4° C. for 1 h. The cells were collected by centrifugation, washed three times with pre-cooled PBS, and resuspended in 50 μL of 1% BSA (in PBS). 1 μL of a fluorescent secondary antibody (Biolegend-410712) was added to each well, and the mixture was well mixed and incubated at 4° C. for 0.5 h. The cells were collected by centrifugation, washed three times with pre-cooled PBS, resuspended in 200 μL of PBS, and assayed on a machine.

For experiment [5], the target named is T2, human Claudin18.2. Description: cell-based ELISA on L929-Claudin18.2 (human) cells.
For experiment [6], the target named is T2, human Claudin18.2. The experiment in a line: cell-based ELISA (OD450) on NUGC4 cells (endogenous human Claudin18.2).
Experiment [7] has as its target T1, human Claudin18.1. Description: FACS on HEK293T-Claudin18.1 (human) cells, antibody 50 µg/mL. Here is the method: The specificity of the anti-human Claudin18.2 humanized monoclonal antibodies was determined by flow cytometry (FACS). The experimental procedures were as follows: HEK293T-Claudin18.1 (human) cells were digested, collected by centrifugation, washed three times with pre-cooled PBS, resuspended in 1% BSA (in PBS), and added to a 96-well pointed bottom plate at 3×10⁵ cells/well. Each test antibody with a final concentration of 50 μg/mL was added, and the mixture was incubated at 4° C. for 1 h. The cells were washed three times with pre-cooled PBS, and then 1 μL of a fluorescent secondary antibody (APC: Biolegend-410712 or PE: BioLegend-410708) was added to each well. The mixture was incubated at 4° C. for 0.5 h, and the cells were washed three times with pre-cooled PBS, then resuspended, and assayed on a flow cytometer. For reference, anti-human Claudin18.1 positive control antibodies (positive control antibody-1 and positive control antibody-2) were included in the experiment.

In experiment [8] the target is T2, human Claudin18.2. The experiment in a line: cell-based ELISA on NUGC4 cells (endogenous human Claudin18.2).

B1: 2D3A11-HZ1 (antibody, human IgG1, kappa)
heavy: QVQLVQSGAEVKKPGASVKVSCKASGYTFTSYVVHWVRQAPGQGLEWMGYINPYNADSKYSQEFQGRATLTSDKSASTAYMELSSLRSEDMAVYYCSRSYYGNSFDVWGQGTLVTVSS[human IgG1 constant region omitted here]
light: DIVMTQSPDSLAVSLGERATINCKSSQSLLNSGNQKNYLTWYQQKPGQSPKLLFFWASTRQSGVPDRFSGSGSGTDFTLTISSLQAEDVAVYYCQNDYYFPFTFGQGTKVEIKRTVAAPSVFIFPPSDEQLKSGTASVVCLLNNFYPREAKVQWKVDNALQSGNSQESVTEQDSKDSTYSLSSTLTLSKADYEKHKVYACEVTHQGLSSPVTKSFNRGEC
notes: Humanized
In the case of B1, the binding result in the experiment with human Claudin18.1 [1] is “no binding (tested: 50 µg/mL)”. For the same molecule, the EC50 with human Claudin18.2 [2] amounted to 0.0127 µg/mL; with human Claudin18.2 [4], 0.369 µg/mL; in the experiment with human Claudin18.2 [5], 0.0171 µg/mL; with human Claudin18.2 [8] it was 0.0952 µg/mL. In the experiment with human Claudin18.2 [3], the “ADCC activity EC50 (Jurkat-NFAT-CD16a luciferase reporter, HEK293T-Claudin18.2 (human) target cells)” value turned out to be 0.0479 µg/mL. For the same molecule, the “CDC activity EC50 (guinea pig serum killing, CCK8, HEK293T-Claudin18.2 (human) cells)” value with human Claudin18.2 [3] amounted to 1.9 µg/mL. The results for the Maximum signal value with human Claudin18.2 [4] and with human Claudin18.2 [6] were 133000 and 0.316, respectively. Besides, in the experiment with human Claudin18.1 [7], the “Positive rate (%)” value is 0.69%.

B2: 2D3A11-HZ2 (antibody, human IgG1, kappa)
heavy: QVQLVESGAEVKKPGASVKVSCKASGYTFTSYVVHWVRQAPGQGLEWMGYINPYNADSKYSQEFQGRATLTSDKSASTAYMELSSLRSEDMAVYYCSRSYYGNSFDVWGQGTLVTVSS[human IgG1 constant region omitted here]
light: DIVMTQSPDSLAVSLGERATINCKSSQSLLNSGNQKNYLTWYQQKPGQSPKLLFFWASTRQSGVPDRFSGSGSGTDFTLTISSLQAEDVAVYYCQNDYYFPFTFGQGTKVEIKRTVAAPSVFIFPPSDEQLKSGTASVVCLLNNFYPREAKVQWKVDNALQSGNSQESVTEQDSKDSTYSLSSTLTLSKADYEKHKVYACEVTHQGLSSPVTKSFNRGEC
notes: Humanized; also called 2D3A-HZ2
For the molecule B2, the binding result with human Claudin18.1 [1] is reported as “no binding (tested: 50 µg/mL)”. The 50% effective concentration (EC50) with human Claudin18.2 [2] amounted to 0.014 µg/mL; in the experiment with human Claudin18.2 [5] it was 0.0256 µg/mL. For the same molecule, the “Positive rate (%)” value with human Claudin18.1 [7] worked out at 1%.

For orientation: EC50 means the concentration that produces a half-maximal response.

Source of the values: patent US20260201030A1 (EVOPOINT BIOSCIENCES, published 2026).
